Reference: PubChem BioAssay AID1671193 (National Center for Advancing Translational Sciences (NCATS), 2021)
Several values for one entry are separate records, joined by “and”; a condition that tells them apart may be missing. Equal values may be shown once. Among all 150,000 compounds or so, about 180 (0.12%) were called active. The inconclusive results got no clear call from the source; some entries with a clear call stand among them for comparison. Calls follow the shape of the dose curve; as a rule, active = well fitted cell-killing curve with a large enough effect; inconclusive = small, poorly fitted or top-dose-only effect, or effect the other way; inactive = flat fitted curve, though single readings scatter. Potencies of inconclusive entries are doubtful fits and often do not repeat.

Test: GF-AFC viability counterscreen for inhibitors of alpha-synuclein gene (SNCA) expression; also: nearly all actives have a fitted effect of over 30% in size;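 as to activity change, negative = cytotoxicity: 0% = DMSO-treated cells and -100% = medium-only wells without cells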
Details: HEK-293-SNCA-luc viability, GF-AFC fluorescence, 24 h; activity change, negative = cytotoxicity: at 57.1 µM (top of the series) unless noted
Method in brief: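 Cytotoxicity counterscreen: after 24 h compound treatment of genome-edited SNCA-luciferase HEK-293 cells, live-cell protease substrate GF-AFC read by fluorescence after 30 min; activity scaled between DMSO (0%) and medium-only (-100%), curves Hill-fitted.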
Potency is read from the fitted curve at half-maximal effect; tags tell the direction and shape of the fitted curve.

| SMILES | Potency | activity change, negative = cytotoxicity |
| --- | --- | --- |
| CN1CCC(NC(=O)C2CCCN(S(C)(=O)=O)CCC(=O)NCC2)CC1 (configuration not stated) | inconclusive: 10 µM [cytotoxic, partial curve, poor fit] | – |
| COCCCn1c(=N)c(C(=O)NCc2ccco2)cc2c(=O)n3cccc(C)c3nc21 | inconclusive: 20 µM [rising, single point] | – |
| COc1ccc(NC(=O)N2C[C@@H]3C[C@H](C2)c2ccc(NC(=O)c4ccccn4)c(=O)n2C3)cc1 | inconclusive: 7.94 µM [cytotoxic, partial curve, poor fit] | – |
| O=C(Cn1ccn2nc3c(c2c1=O)CCCCC3)Nc1cc(F)ccc1F | inactive | – |
| Cc1nn2c(c1-c1ccccc1OCc1ccccc1)N(C(=O)C1CCC1)CCC2 | inconclusive: 31.6 µM [cytotoxic, single point] | – |
| O=C(NCCc1ccccc1)c1nc2sccn2c1-c1ccc(F)cc1 | inactive | – |
| COc1ccc(Oc2ncc3ncc(=O)n(Cc4cccc(OC)c4)c3n2)cc1 | inconclusive: 39.8 µM [cytotoxic, partial curve, poor fit] | – |
| CNC(=O)CCn1ncc2cc(OCc3ccccc3-c3cccc(C)c3)ccc21 | inconclusive: 39.8 µM [cytotoxic, single point] | – |
| COc1ccc(NC(=O)c2ccc(-c3ncc4cnc(C5=CCOCC5)cn34)cc2)cn1 | inactive | – |
| Cc1cnc(CCNC(=O)c2cn(C)cn2)n1CC1CC1 | inactive | – |
| O=C(NCCc1ccccc1)N1CCC(Oc2ccc(-c3noc(C4CC4)n3)cc2)C1 (configuration not stated) | inconclusive: 22.4 µM [cytotoxic, partial curve, poor fit] | – |
| Cc1cc(Cl)ccc1NC(=O)CN1C(=O)COc2ccc(S(=O)(=O)N3CCC(C)CC3)cc21 | inconclusive: 39.8 µM [rising, single point] | – |
| Cc1nnn2c(C(=O)NCc3ccc(Cl)cc3)cccc12 | inactive | – |
| COc1cc(OC)cc(C(=O)N2CCC3(CC2)N=C(c2ccc(C)cc2)NO3)c1 | inconclusive: 3.16 µM [cytotoxic, partial curve, poor fit] | – |
| COc1cc(N2CCC(O)CC2)ccc1Nc1cc(Nc2ccccc2S(=O)(=O)C(C)C)c2cc[nH]c2n1 | inactive and inconclusive: 24.1 µM [cytotoxic, partial curve, poor fit] | – |
| C=C1C(=O)OC2/C=C(\COC(C)=O)CC/C=C(\C=O)CC(OC(=O)CC(C)C)C12 (configuration not stated) | inconclusive: 14.6 µM [cytotoxic, single point] | – |
| CCOCCOC1CCN(C(=O)c2cc(-c3cccc(OC)c3)n[nH]2)CC1 | – | inactive: -0.799% [at 12.5 µM] |
| Cc1ccc(C(=O)N[C@H]2CO[C@H]3[C@@H]2OC[C@@H]3n2nnnc2Oc2ccccc2)cc1 | inconclusive: 31.6 µM [cytotoxic, partial curve, poor fit] | – |
| COc1cc(C(=O)N2CCC(N3CCN(C)CC3)CC2)ccc1Nc1ncc2c(n1)N(C)c1ccccc1C(=O)N2C | inconclusive: 29.9 µM [cytotoxic, single point] | – |
| CCOc1ccc(CC(=O)N2CCC[C@H]2c2nc(-c3ccc(OC)cc3)no2)cc1OCC | inconclusive: 7.08 µM [cytotoxic, full curve, poor fit] | – |
| O=C1NC2(CCCN(Cc3ccsc3)C2)COc2ccccc21 (configuration not stated) | inactive | – |

| SMILES | Potency | activity change, negative = cytotoxicity |
| --- | --- | --- |
| CC(C)c1ccc(CNC(=O)C2Cn3cccc3C(=O)N2)cc1 (configuration not stated) | inactive | – |
| O=C(NCCN1CCCCC1)c1ccc(Cn2c(SCc3ccc(F)cc3)nc3cccnc32)cc1 | inconclusive: 12.6 µM [cytotoxic, partial curve, poor fit] | – |
| CC(=O)Nc1ccc(S(=O)(=O)Nc2nc3n(n2)C(c2ccccc2)C=C(c2ccc(Cl)cc2)N3)cc1 (configuration not stated) | inconclusive: 31.6 µM [rising, partial curve] | – |
| CN(C)C(C(=O)N1CCC(O)(c2ccccc2)CC1)c1cccc(F)c1 (configuration not stated) | inactive | – |
| COCc1nc(NCc2cn3cc(C)sc3n2)cc(C2CC(N)C2)n1 (configuration not stated) | inactive | – |
| COc1cccc(NC(=O)C2CCCN2S(=O)(=O)c2ccc3nc(-c4ccccc4)[nH]c3c2)c1 (configuration not stated) | inconclusive: 17.8 µM [cytotoxic, partial curve, poor fit] | – |
| O=C(NC1CC1)c1ccc2nnc(-c3ccc(F)cc3)n2c1 | inactive | – |
| COc1ccc(-c2nc3sc(CCNS(=O)(=O)c4c(C)cc(C)cc4C)c(C)n3n2)cc1 | inconclusive: 14.1 µM [cytotoxic, partial curve, poor fit] | – |
| CCNc1ncc2nc(-c3ccc(Cl)cc3)c(=O)n(-c3ccc(OC)cc3)c2n1 | inconclusive: 22.4 µM [rising, partial curve] | – |
| COc1ccc(NC(=O)c2nc3sccn3c2-c2ccc(OC)cc2)cc1 | inconclusive: 28.2 µM [cytotoxic, single point] | – |
| CCCN(CC1CC1)C(=O)CCC1CCN(S(=O)(=O)c2ccccc2)CC1 | inconclusive: 3.16 µM [cytotoxic, single point] | – |
| O=C(Nc1ccc(Cl)cc1)c1nc2c(o1)CCN(Cc1ccc3cn[nH]c3c1)CC2 | inconclusive: 14.1 µM [cytotoxic, partial curve, poor fit] | – |
| Cn1nc(CN2CCOCC2)c2c1CCN(S(=O)(=O)c1ccc3c(c1)CCC3)C2 | inactive | – |
| C[C@](N)(Cc1ccc(O)c(O)c1)C(=O)O | inconclusive: 10.8 µM [cytotoxic, partial curve, poor fit] | – |
| Cc1ccc2c(n1)N(C)[C@H](CO)CCN(Cc1ccc(Cl)cc1)C2 | inactive | – |
| COC(=O)c1sccc1S(=O)(=O)N1CCN(c2ccc(C(C)=O)cc2)CC1 | inconclusive: 39.8 µM [cytotoxic, single point] | – |
| NC(=O)Cn1c(=O)n(-c2ccc(F)c(Cl)c2)c(=O)c2sc3ccccc3c21 | inconclusive: 6.31 µM [cytotoxic, partial curve, poor fit] | – |
| CCOCc1nc(C2CCCN(C(=O)c3ccccc3C)C2)no1 (configuration not stated) | – | inactive: 3.31% [at 12.5 µM] |
| C[S+](=O)([O-])N1CCCC2(Cc3ccccc3CN2C(=O)c2ccc(Cl)cc2)C1 (configuration not stated) | inconclusive: 35.5 µM [cytotoxic, single point] | – |
| CCC(C)NC(=O)Cn1c(C)ccc(NC(=O)Nc2ccc(C)cc2)c1=O (configuration not stated) | inactive | – |
| O=C1CCN(S(=O)(=O)c2ccccc2)CCCN(C(=O)NCc2ccccc2)CCN1 | inconclusive: 31.6 µM [cytotoxic, single point] | – |

| SMILES | Potency | activity change, negative = cytotoxicity |
| --- | --- | --- |
| COc1ccc(C(=O)N[C@@H]2CCC[C@@H]2C(=O)NCCCOC(C)C)cc1 | inconclusive: 11.2 µM [cytotoxic, partial curve, poor fit] | – |
| CCc1ccc(CNC(=O)c2ccc3c(c2)N(C)C2CCCCN2C3=O)cc1 (configuration not stated) | inconclusive: 8.91 µM [cytotoxic, single point] | – |
| CCn1c(C)ccc(C(=O)N[C@@H]2COCC[C@H]2Oc2ccccn2)c1=O | inactive | – |
| CC(C)(O)/C=C/CC(C)(O)C1C(O)CC2(C)C3CCC4C(C)(C)C(=O)CCC4(C)C3CCC12C (configuration not stated) | inconclusive: 18.4 µM [cytotoxic, single point] | – |
| COc1cc([C@@H]2c3cc4c(cc3[C@H](O)[C@H]3COC(=O)[C@@H]23)OCO4)cc(OC)c1OC | inconclusive: 17.1 µM [cytotoxic, partial curve] | – |
| N#Cc1ccccc1CN1CCCCCCNC(=O)[C@@H]2C[C@@H](C(=O)N3CCc4ccccc4C3)C[C@@H]21 | inconclusive: 5.01 µM [cytotoxic, single point] | – |
| Cc1cc(C)c(OCC(=O)c2ccc3c(c2)N(CCCC(=O)N2CCOCC2)C(=O)CO3)c(C)c1 | inconclusive: 0.708 µM [cytotoxic, full curve, poor fit] | – |
| Cc1ccc(C)c(CNC(=O)C2(c3ccc(NS(C)(=O)=O)cc3)CCCCC2)c1 | inconclusive: 22.4 µM [cytotoxic, partial curve, poor fit] | – |
| Cc1noc(C)c1CC(=O)NCC1CCN(c2cc(-c3ccccc3)[nH]n2)CC1 | inconclusive: 8.91 µM [rising, partial curve, poor fit] | – |
| Cc1cccc(CNC(=O)Cc2ccc(N(Cc3ccccc3)C(=O)c3ccco3)cc2)c1 | inactive | – |
| CN(C(=O)c1ccc2cccc(F)c2n1)C1CCCN(CCCc2ccccc2)C1 (configuration not stated) | inactive | – |
| Cc1[nH]c2ccc(F)cc2c1-c1nc2c3cccnc3c3ncccc3c2[nH]1 | inconclusive: 2.12 µM [cytotoxic, full curve, poor fit] | – |
| CN(Cc1cnc2ccccc2c1)C(=O)c1ccc(CCC(C)(C)O)cc1 | inactive | – |
| O=c1c(-c2ccccc2)nc2cnc(N3CCOCC3)nc2n1C[C@H]1CCCO1 | inconclusive: 22.4 µM [rising, single point] | – |
| C=C1C(=O)O[C@@H]2[C@H]3C(C)=CC(=O)C3=C(C)CC[C@@H]12 | inconclusive: 29.9 µM [cytotoxic, single point] | – |
| COc1ccc(C(=O)N2CCCCCC2c2nnc(-c3ccccc3)o2)cn1 (configuration not stated) | inconclusive: 20 µM [cytotoxic, partial curve] | – |
| Cc1cc2nc(-c3cccc(NC(=O)COc4ccc(C(C)C)cc4)c3)oc2cc1C | inactive | – |
| COc1ccc(C(=O)NCCn2ccn3nc(-c4ccc(C)cc4C)cc3c2=O)c(C)c1 | inconclusive: 28.2 µM [cytotoxic, single point] | – |
| COc1cccc(NC(=O)CSc2nnc3[nH]c(=O)cc(-c4ccccc4)n23)c1 | inactive | – |
| COCCn1c(=O)c(-c2ccc(OC)cc2)nc2cnc(N3CCNCC3)nc21 | inconclusive: 28.2 µM [rising, partial curve, poor fit] | – |
